Measurements from PubChem BioAssay AID686979 (National Center for Advancing Translational Sciences (NCATS), 2013).
“And” between values parts separate entries of the source, which are not always exact repeats. Equal values may be shown once. Among all 420,000 compounds or so, about 50,000 (12%) were called active. The inconclusive results got no clear call from the source; some entries with a clear call stand among them for comparison. Calls come from the whole dose curve; as a rule, active = well fitted inhibition curve with a large enough effect; inconclusive = small, poorly fitted or top-dose-only effect; inactive = flat fitted curve, though single readings scatter. A potency beside an inconclusive call is a rough fit, not a confirmed value.

test: qHTS for Inhibitors of human tyrosyl-DNA phosphodiesterase 1 (TDP1): qHTS in cells in presence of CPT; conditions: chicken DT40 Tdp1-/-;hTDP1 cells + 20 nM CPT, ATP luminescence, 48 h; activity change, negative = growth inhibition: at 46.2 µM (top of the series) unless noted; note: nearly all actives have a fitted effect of over 55% in size
How it was run: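 Cell growth measured by CellTiter-Glo luminescence after a minimum 48 h, 37 C compound exposure with 20 nM CPT in Tdp1-knockout DT40 cells stably expressing hTDP1, seeded 400/well; qHTS titration format.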
% is set by controls: 0 for no effect and ±100 for the full control effect; potency is the fitted concentration of half-maximal effect; tags give direction and shape of the fitted curve.

Row | SMILES | Potency | activity change, negative = growth inhibition
1 | COC(=O)C1=C(C(=O)OC)[C@]2([C@H]3CC=CCN[C@@H](Cc4ccccc4)C(=O)N3Cc3ccccc3)C=C[C@H]1O2 | active: 18.4 µM | 
2 | O=C(CO/N=C\c1ccccc1)Nc1ccccc1C(=O)N1CCOCC1 | inconclusive: 20.6 µM [inhibitor, partial curve] | 
3 | CCC(C(=O)NCc1ccccc1)n1ncn2c(cc3occc32)c1=O (configuration not stated) |  | inactive: -0.772%
4 | CC1(C)C(C(=O)O)N2C(=O)C(NC(=O)Cc3ccccc3)C2S1=O (configuration not stated) |  | inactive: 6.54%
5 | COc1ccc(OC)c(C2NC(=O)N(C)C(C)=C2C(=O)OCc2ccccc2)c1 (configuration not stated) | inconclusive: 16.4 µM [inhibitor, partial curve] | 
6 | CC(C)(C)c1ccc(C(=O)N2CCC2(C)C(=O)NCc2ccc3c(c2)OCO3)cc1 (configuration not stated) | active: 11.6 µM | 
7 | CCCCN(C(=O)CCC(=O)Nc1cc(C)on1)C(C(=O)NC1CCCC1)c1ccc(OCC)cc1 (configuration not stated) | inconclusive: 23.1 µM [inhibitor, single point] | 
8 | CCCn1c(=N)n(CC(O)c2ccco2)c2ccccc21 (configuration not stated) | inconclusive: 29.1 µM [inhibitor, single point] | 
9 | COc1ccc2c(C(=O)CCl)c[nH]c2c1 | active: 2.59 µM | 
10 | COc1ccc(OC(C)C(=O)NCc2nc(-c3ccc(Cl)cc3)no2)cc1 (configuration not stated) | inconclusive: 25.9 µM [inhibitor, single point] | 
11 | O=C(O)c1ccc(N2C(=O)CC(N3C(=O)/C(=C/c4ccc(Cl)cc4)SC3=S)C2=O)cc1 (configuration not stated) | inconclusive: 32.6 µM [inhibitor, single point] | 
12 | CSc1cccc(CN2CCN(Cc3ccc(F)c(F)c3)C(CCO)C2)c1 (configuration not stated) | inconclusive: 18.4 µM [inhibitor, single point] | 
13 | CCCC(=O)C1=C(O)C(C(=O)OC)C(C)(C)CC1=NCCCCCC(=O)O (configuration not stated) |  | inactive: -23%
14 | Oc1cccc(/C=N/NC(=S)NCCN2CCOCC2)c1O | active: 7.31 µM | 
15 | Cc1ccc(CN2[C@@H]3c4ccccc4C[C@@H]3OCCS2(=O)=O)cc1 | inconclusive: 35.5 µM [inhibitor, single point] and inconclusive: 11.6 µM [inhibitor, partial curve] | 
16 | O=C(CN1C(=O)NC2(CCCCC2)C1=O)Nc1ccc(N2CCCCC2)cc1 |  | inconclusive: -33.9% [inhibitor]
17 | O=C(Nc1ccc(F)cc1)c1cccc(N2C(=O)C3C4CCC(C4)C3C2=O)c1 (configuration not stated) | inconclusive: 29.1 µM [inhibitor, single point] | 
18 | COC(=O)c1ccc2c(=O)n(CCCCCC(=O)NCc3ccc4c(c3)OCO4)c(=O)[nH]c2c1 | inconclusive: 29.1 µM [inhibitor, single point] | 
19 | CC(C)(C)c1ccc2c(c1)OC(C(=O)N/N=C\c1ccccn1)CO2 (configuration not stated) | inconclusive: 25.9 µM [inhibitor, single point] | 
20 | CCOCCCNC(=O)/C(C#N)=C/c1ccc(C(=O)OC)cc1 | inconclusive: 29.1 µM [inhibitor, single point] | 
21 | O=c1c2oc3ccccc3c2n(Cc2cccc(C(F)(F)F)c2)c(=O)n1Cc1ccc2c(c1)OCO2 | inconclusive: 4.61 µM [inhibitor, full curve] | 
22 | CCCCCCN1C[C@@H](O)[C@H](n2cc(COC(=O)c3ccccc3)nn2)C[C@@H]1c1ccc(OC)cc1 | inconclusive: 29.1 µM [inhibitor, single point] | 
23 | COc1ccccc1N1CCN(CC(=O)Nc2ccc(Cl)c(C(F)(F)F)c2)CC1 | active: 20.6 µM | 

Row | SMILES | Potency | activity change, negative = growth inhibition
24 | CC(=O)Nc1ccc(N=Nc2ccccc2)cc1[N+](=O)[O-] |  | inactive: 3.64%
25 | O=c1n(Cc2ccccc2)c(O)c2n1Cc1ccccc1N=C2c1ccc(C(F)(F)F)cc1 | inconclusive: 29.1 µM [inhibitor, single point] | 
26 | O=C(COc1ccccc1)Nc1nc(-c2ccc(S(=O)(=O)N3CCOCC3)cc2)cs1 | inconclusive: 18.4 µM [inhibitor, single point] | 
27 | COC(=O)Cc1ccc(N(Cc2ccccc2F)S(=O)(=O)c2ccc(C)cc2)cc1 | active: 20.6 µM | 
28 | O=C(CN1CCC(NC(=O)Nc2ccccc2)CC1)Nc1ccccc1F | inconclusive: 0.0164 µM [inhibitor, full curve, poor fit] | 
29 | NS(=O)(=O)c1ccc(NC(=O)c2ccc(S(=O)(=O)N3CCc4ccccc43)cc2)cc1 | inconclusive: 29.1 µM [inhibitor, single point] | 
30 | CC(C)Sc1ncc(Cl)c(C(=O)Nc2ccc(S(=O)(=O)N3CCCCC3C)cc2)n1 (configuration not stated) | inconclusive: 25.9 µM [inhibitor, single point] | 
31 | C=CC[n+]1c(-c2ccc(OC)c(OC)c2)csc1NNC(=O)Nc1ccccc1 | active: 7.31 µM | 
32 | c1cnc(N2CCN(c3cnccn3)CC2)nc1 | inconclusive: 0.461 µM [inhibitor, single point] | 
33 | Cc1cc(C)c2sc(N(CCN(C)C)C(=O)CCS(=O)(=O)c3ccccc3)nc2c1 | active: 23.1 µM | 
34 | COc1cccc(CN2CCC(C(=O)N3CCN(Cc4ccc5c(c4)OCO5)CC3)CC2)c1 | inconclusive: 29.1 µM [inhibitor, single point] | 
35 | Clc1cccc(N=C2NN=C(c3ccc4c(c3)OCCO4)CS2)c1 | active: 20.6 µM | 
36 | N=c1n(CC(=O)c2ccc([N+](=O)[O-])cc2)c2ccccc2n1Cc1ccc(Cl)cc1 | active: 2.91 µM | 
37 | CCn1cc(C(=O)NC(C)c2ccccc2)c(=O)c2cc(S(=O)(=O)N3CCc4ccccc4C3)ccc21 (configuration not stated) | inconclusive: 14.6 µM [inhibitor, partial curve] | 
38 | CC(=O)C1=NOC2C(=O)N(c3ccccc3)C(=O)C12 (configuration not stated) |  | inactive: -15.5%
39 | COC(=O)c1c(C)[nH]c(C)c1-c1cccc([N+](=O)[O-])c1 | inconclusive: 29.1 µM [inhibitor, single point] | 
40 | CC(C)(C)c1nc(Sc2ncccc2[N+](=O)[O-])n[nH]1 | inconclusive: 0.0184 µM [inhibitor, full curve, poor fit] | 
41 | CCN(CC(=O)Nc1cc(Cl)ccc1C)C(=O)CCS(=O)(=O)c1ccc(Cl)cc1 | active: 18.4 µM | 
42 | COc1cccc(Cn2c(C(C)n3c(C)nc4ccccc43)nc3ccccc32)c1 (configuration not stated) | inconclusive: 29.1 µM [inhibitor, single point] | 
43 | CC(C)Nc1cccnc1N1CCN(C(=O)c2cc3cc(NS(C)(=O)=O)ccc3[nH]2)CC1 | inconclusive: 23.7 µM [inhibitor, single point] | 
44 | Cc1occc1C(=O)N1CCN(c2ccc(Cl)c(Cl)c2)CC1 | inconclusive: 23.1 µM [inhibitor, single point] | 
45 | Cc1nc2ccccc2n1Cc1ccccc1 | active: 16.4 µM | 
46 | CC(C)(C)NC(=O)CN(Cc1cccs1)C(=O)CN1C(=O)C(=O)c2ccccc21 |  | inconclusive: -33.8% [inhibitor]

Row | SMILES | Potency | activity change, negative = growth inhibition
47 | CCCN(c1ccc(C)cc1)c1nc(=O)c2cccnc2s1 |  | inactive: -29.5%
48 | COc1ccc(-c2nc3ccc(Cl)cn3c2Cc2cccc(F)c2)cc1OC | active: 23.1 µM | 
49 | N#CCOc1ccc(C2=NO[C@@H]3[C@@H]4C[C@@H]([C@H]5C(=O)N(c6ccc7c(c6)OCO7)C(=O)[C@@H]45)[C@H]23)cc1 | inconclusive: 23.1 µM [inhibitor, single point] | 
50 | Cc1ccccc1NC(=O)COC(=O)CN1C(=O)NC(C)(C)C1=O |  | inactive: -6.7%
51 | CCN(CC)c1ccc(NC(=O)c2ccc(=O)[nH]c2)cc1S(=O)(=O)Nc1ccccc1OC | inconclusive: 16.4 µM [inhibitor, single point] | 
52 | COc1cc(Cn2c3ccc(NC(=S)NCc4ccc(C)cc4)cc3c(=O)n2C)ccc1F | inconclusive: 29.1 µM [inhibitor, single point] | 
53 | CCOc1ccc(-c2nc(CSCC(=O)NC3CCN(Cc4ccccc4)CC3)c(C)o2)cc1 | active: 23.1 µM | 
54 | COc1ccc(C(=O)c2cn(CC(=O)Nc3ccc4c(c3)OCO4)c3ccc(OC)cc3c2=O)cc1 | inconclusive: 29.1 µM [inhibitor, single point] | 
55 | CC(C)c1ccc(C2C3=C(COC3=O)Nc3cc4c(cc32)OCO4)cc1 (configuration not stated) | active: 0.651 µM | 
56 | Cc1ccccc1CC(=O)Nc1cccnc1 |  | inactive: -10.3%
57 | c1ccc(C(=NNc2nc3ccccc3s2)c2ccccn2)cc1 | active: 0.164 µM | 
58 | CC[C@]1(C(=O)OC)[C@H]2C(=O)N(Cc3ccccc3)C(=O)[C@H]2[C@H]2CN=C(SCC3CC3)N21 | inconclusive: 29.1 µM [inhibitor, single point] | 
59 | O=C(NCCc1ccc(Cl)cc1)c1cccn1-c1nnc(N2CCCC2)s1 | active: 23.1 µM | 
60 | COc1ccc(Cn2c(=O)[nH]c3cc(C(=O)N4CCN(c5ccc(C(C)=O)cc5)CC4)ccc3c2=O)cc1 | inconclusive: 18.4 µM [inhibitor, single point] | 
61 | COc1cc(C)c(NC(=O)COc2ccc3c(c2)CCC3)cc1OC | active: 23.1 µM | 
62 | O=c1c(/C=C(\O)c2ccccc2)nc2ccccc2n1-c1ccccc1 | inconclusive: 29.1 µM [inhibitor, single point] | 
63 | COc1ccc(OC)c(C2CC(=O)Nc3cc(OC)c(OC)c(OC)c32)c1 (configuration not stated) | inconclusive: 16.4 µM [inhibitor, single point] | 
64 | COc1ccccc1C(=O)N/C(=C\c1cn(C)c2ccccc12)C(=O)NCCCN1CCOCC1 |  | inactive: -6.38%
65 | CCOC(=O)c1cc(C)sc1NC(=O)CN1CCN(C(=O)c2ccco2)CC1 | active: 23.1 µM | 
66 | CCc1ccccc1NC(=O)c1cc(S(=O)(=O)NC2CCCC2)ccc1F | inconclusive: 29.1 µM [inhibitor, single point] | 
67 | CCCn1cc(S(=O)(=O)c2ccccc2)c(=O)c2cc(F)c(N3CCCC3)cc21 | inconclusive: 14.6 µM [inhibitor, partial curve] | 
